Laboratory results from publication PMC12040169 (PLOS Biology, 2025).
Some of the results follow.

Each compound was assayed on T1, C. trachomatis L2/434/Bu expressing GFP (CTL2-GFP). Details: total inclusion area; 28.5 h, 10 µM; inhibitor.
T1 construct: L2/434/Bu GFP intracellular growth in HeLa cells
Design: species or system HeLa; C. trachomatis total inclusion area by high-content imaging, normalised to DMSO
Outline: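 High-content images of fixed, Hoechst-stained infected cultures supply inclusion area and count (growth) plus nuclei number (viability), complementing bulk GFP/resorufin fluorescence. MIC determination is unchanged from the primary assay.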

Point of comparison: `CN(C)c1ccc(-c2nc(N(C)C)n(C)n2)cn1` [CBK306858], “% of control remaining” value 86.7562. Against it:
- O=C(O)c1cccc(-c2nc(-c3ccc(S(=O)(=O)N4CCOCC4)cc3)cs2)c1 [CBK297730] — lower, 76.4407
- CCc1cc(C(=O)OC)c(NC(=O)C2C3C=CC(C3)C2C(=O)O)s1 (centres unmarked) [CBK270315] — higher, 88.2026
- O=C(CSc1nnc(-c2ccncc2)n1-c1ccccc1)N/N=C/c1coc2ccccc2c1=O [CBK262866] — higher, 94.0036
- Cc1nc2cc(C(=O)NCC(C)(C)N3CCCCC3)ccc2n1C [CBK281862] — higher, 133.872
- COCC1CCN(c2c(F)cc(C#N)cc2F)CC1 [CBK306244] — lower, 43.2351
- O=C1CCc2cc(S(=O)(=O)NC(c3ccccc3)c3ccccc3)cc3c2N1CCC3 [CBK294418] — higher, 100.487
- CCn1nc(C)cc1C(=O)N1Cc2cnn(Cc3ccc(F)cc3)c2C1 [CBK306574] — lower, 74.9919
- OCC1CCCN1c1nccnc1-c1ccoc1 (centres unmarked) [CBK089057] — higher, 134.021
- O=C(O)CC(C(=O)Nc1ccccc1)N1CCOCC1 (centres unmarked) [CBK287182] — higher, 91.6546
- O=C1Nc2ccccc2C12CC(c1ccccc1Cl)=NN2 (centres unmarked) [CBK288004] — lower, 64.321
- Cc1cc(S(=O)(=O)NCCCn2ccnc2)c(C)cc1Br [CBK269525] — higher, 90.6581
- Cc1ccc([N+](=O)[O-])cc1S(=O)(=O)NCC(=O)O [CBK266234] — higher, 123.431
- CN(C)CC(O)CN1C(=O)NC(C)(C)C1=O (centres unmarked) [CBK027078] — lower, 67.6896
- Clc1ccc(-c2ccc(N3CCN(CCN4CCCC4)CC3)nc2)cc1 [CBK037623] — higher, 102.31
- Cc1ccc(Cl)c(OC(C)C(=O)N2CCC(CC(N)=O)CC2)c1 (centres unmarked) [CBK305762] — higher, 101.147
- Cn1c(NCc2ccccn2)nc2ccccc21 [CBK268544] — higher, 111.448
- CCCCCNC(=O)N1CCN(CC(=O)OCC)CC1 [CBK044786] — lower, 72.7635
- O=C(N/N=C/C=N/NC(=O)c1ccccc1O)c1ccccc1O [CBK261430] — higher, 107.448
- C=C(C)Cn1c(=O)c2c(nc3[nH]c(C)c(C)n32)n(C)c1=O [CBK288184] — lower, 77.2503
- O=C(c1sc2cc(Cl)ccc2c1Cl)N1CCN(Cc2ccc3c(c2)OCO3)CC1 [CBK074431] — lower, 74.5871
- CCC(CC)n1nc(C(=O)NC2(C#N)CCSC2)cc1C (centres unmarked) [CBK305111] — lower, 41.9725
- N#Cc1ccc(-c2cnc(N)c(-c3ccccc3Cl)n2)cc1 [CBK113660] — higher, 116.401
- c1ccc2c(c1)CCN2c1ncnc2[nH]cnc12 [CBK291104] — lower, 79.1139
- Nc1nc2c([C@H]3C[C@@H](O)[C@@H](CO)O3)c[nH]c2c(=O)[nH]1 [CBK201194] — higher, 127.004
- O=C1c2ccccc2C(=O)N1CN(CCc1ccc(Cl)cc1)CN1C(=O)c2ccccc2C1=O [CBK225934] — higher, 106.107
- Cc1ccccc1-n1sc(=O)n(Cc2ccc(F)cc2)c1=O [CBK113605] — lower, 75.7438
- Cc1ccc2[nH]c(SCC(=O)NC3CCCC3)nc2c1 [CBK057983] — lower, 72.5324
- COc1ccc(OC)c(S(=O)(=O)N2CCCC(C(=O)O)C2)c1 (centres unmarked) [CBK269225] — lower, 60.8852
- O=C(CN1CCC(c2ccccc2F)CC1)Nc1nccs1 [CBK283579] — lower, 69.9058
- C=Cn1ncc(CN(CCCN(C)C)Cc2ccco2)c1C [CBK283228] — higher, 89.2453
- CS(=O)(=O)N1CC2(CCN(CC(N)=O)CC2)c2ccccc21 [CBK126678] — lower, 81.3361
- COC(=O)c1cc(C(=O)CSc2nc(N)cc(O)n2)ccc1O [CBK110407] — lower, 73.3775
- Cc1cc2c(cc1C)C(=O)CC1(CCN(C(=O)c3ccco3)CC1)O2 [CBK282819] — lower, 81.0835
- CN1C(=O)COc2ccccc2CCCC[C@@H]2[C@H]1CCCN2CC(N)=O [CBK292098] — higher, 100.459
- Cn1cc(CC(=O)NCc2ccccc2)c2ccccc21 [CBK200200] — higher, 91.0889
- O=C1CC(C(=O)Nc2ncccn2)C(c2ccccc2)O1 (centres unmarked) [CBK265130] — higher, 91.8346
- CC(=O)Nc1ccc(S(=O)(=O)N(c2ccc(C(C)(C)C)cc2)C2CCNCC2)cc1 [CBK165062T] — lower, 71.2743
- COc1cc(CN2CCC[C@@H]2CN2CCCC2)cc(OC)c1OC [CBK149100] — higher, 108.627
- N#CCCCN1CCC(Oc2nccnc2OCc2ccc(Cl)cc2Cl)CC1 [CBK161568] — lower, 78.6809
- CC1(C)CC(=O)c2sc(NC(=O)c3cccc(N4C(=O)CCC4=O)c3)nc2C1 [CBK287565] — lower, 79.8395
